Data as given in the supplement of paper PMC5655136.
These are enrichments in a pooled selection; single values are uncertain.

Test system: NB7
Assay: fold depletion of shRNA, plasmid library share / infected cells without Dox share (9 days) (ratio); higher = more depleted after infection (more toxic, leaky expression from a Tet-inducible vector; NB7 is a neuroblastoma line without caspase-8)
[1] = shRNA pool: CD95 ORF + CD95 3'UTR + Venus libraries
[2] = shRNA pool: CD95L ORF + CD95L 3'UTR + Venus libraries
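Note: shRNA barcodes quantified by deep sequencing of PCR amplicons from cellular DNA, counts expressed as percent of each subpool, ratio averaged over two biological duplicates.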

| Sequence | fold depletion of shRNA [1] | fold depletion of shRNA [2] |
| --- | --- | --- |
| TGCACCAAATGTGAACATGGA | 2.32 | – |
| TGCACCACCGGCAAGCTGCCC | 1.57 | 0.695 |
| TGCACCCGGACCCAGAATACC | 1.41 | – |
| TGCACTACTGGGCAGATGTGG | – | 0.899 |
| TGCAGAAAGCACAGAAAGGAA | 1.19 | – |
| TGCAGAAGATGTAGATTGTGT | 1.28 | – |
| TGCAGAATTTAAATAAGGCTC | 1.3 | – |
| TGCAGAGAAAATTCAGACTAT | 1.05 | – |
| TGCAGAGGATGAAAGATTAAG | 1.17 | – |
| TGCAGATGTAAACCAAACTTT | 0.676 | – |
| TGCAGCAGCCCTTCAATTACC | – | 3.27 |
| TGCAGCTCGCCGACCACTACC | 1.49 | – |
| TGCAGTGCTTCGCCCGCTACC | 1.3 | 0.857 |
| TGCATAATAAGCTAAAGAGGC | – | 1.75 |
| TGCATATCCTGAGCCATCGGT | – | 0.96 |
| TGCATTTGGTCAAGATTTTGA | – | 2.02 |
| TGCATTTTACTGGCTCAAAAC | 1.21 | – |
| TGCATTTTTGTGAAATGAAAA | – | 1.3 |
| TGCCAAGAAGGGAAGGAGTAC | 1.92 | – |
| TGCCAATTCCACTAATTGTTT | 0.898 | – |
| TGCCACCCCTGAAGAAGAGAG | – | 7.06 |
| TGCCACCTACGGCAAGCTGAC | 1.62 | 0.839 |
| TGCCATAAGCCCTGTCCTCCA | 3.9 | – |
| TGCCATGTGAAGAGGGAGAAG | – | 1.08 |
| TGCCCAAGTGACTGACATCAA | 1.76 | – |

| Sequence | fold depletion of shRNA [1] | fold depletion of shRNA [2] |
| --- | --- | --- |
| TGCCCATCCTGGTCGAGCTGG | 2 | 2.06 |
| TGCCCCACTGGCAGCATCTTC | – | 2.46 |
| TGCCCCTGAGCCACAAGGTCT | – | 0.971 |
| TGCCCCTTGTGTTTGGAATTA | 3.35 | – |
| TGCCCGAAGGCTACGTCCAGG | 0.735 | 1.19 |
| TGCCCGACAACCACTACCTGA | 0.576 | 0.898 |
| TGCCCGTGCCCTGGCCCACCC | 1.81 | 0.512 |
| TGCCCTGCCAAGAAGGGAAGG | 0.718 | – |
| TGCCCTGGCCCACCCTCGTGA | 0.987 | 1.08 |
| TGCCCTTAGAAATTCTAGCCT | 1.35 | – |
| TGCCTCCAAGGATGTTTAAAA | 1.22 | – |
| TGCCTCCACTACCGCTGCCAC | – | 0.286 |
| TGCCTCTAAATTACCTCTGAT | 1.45 | – |
| TGCCTGAGAGTATTTAGGCAG | – | 1.24 |
| TGCCTTGGTGCTCATCTTAAT | 3.53 | – |
| TGCGTGCCCTGCCAAGAAGGG | 0.771 | – |
| TGCTAAGTACCCAAATAGGAG | 1.94 | – |
| TGCTACAAATGGCAGCTTATA | 1.63 | – |
| TGCTACCTCAAGGGGGACTGT | – | 4.1 |
| TGCTAGATTATCGTCCAAAAG | 1.92 | – |
| TGCTCATCTTAATGGCCTAAT | 2.06 | – |
| TGCTCTCAGAGAAAGTAGCTT | 1.3 | – |
| TGCTCTTGTCATACCCCCAAG | 4.41 | – |
| TGCTGAAATATCAGTTACTGA | 1.24 | – |
| TGCTGATCATTTATATGTCAA | – | 0.658 |

| Sequence | fold depletion of shRNA [1] | fold depletion of shRNA [2] |
| --- | --- | --- |
| TGCTGCCCGACAACCACTACC | 1.08 | 1.41 |
| TGCTGCTGCCCGACAACCACT | 3.33 | 3.58 |
| TGCTGGAGTCATGACACTAAG | 1.25 | – |
| TGCTGGAGTTCGTGACCGCCG | 0.954 | 1.79 |
| TGCTGGGCATCTGGACCCTCC | 0.595 | – |
| TGCTTAAAAATCATTGATTGT | – | 1.84 |
| TGCTTCCTGACAATCAACTCT | – | 13.4 |
| TGCTTCGCCCGCTACCCCGAC | 1.58 | 0.833 |
| TGCTTCGTAATTGGCATCAAC | 2 | – |
| TGCTTGGTTTTTTACTGGGTA | 1.56 | – |
| TGCTTTCTGGAGTGAAGTATA | – | 0.914 |
| TGGAAAAGGAAGACTAGAGGC | – | 31 |
| TGGAAAGAAAGAAGCGTATGA | 0.895 | – |
| TGGAAATAAACTGCACCCGGA | 1.26 | – |
| TGGAAATATCACCAAAAAATA | 1.34 | – |
| TGGAATCATCAAGGAATGCAC | 0.675 | – |
| TGGAATGGGAAGACACCTATG | – | 1.55 |
| TGGAATTATAAAATATAGGTA | 0.545 | – |
| TGGACAGCAGTGCCAGCTCTC | – | 2.87 |
| TGGACCCTCCTACCTCTGGTT | 0.469 | – |
| TGGACCTTGAGACCACAGGGT | – | 0.701 |
| TGGACGGCGACGTAAACGGCC | 0.545 | 0.811 |
| TGGAGATACTAACTGCTCTCA | 3.01 | – |
| TGGAGGAATATGACGGAAGAA | – | 2.46 |
| TGGAGGGGAAGATGATGAGCT | – | 4.19 |

| Sequence | fold depletion of shRNA [1] | fold depletion of shRNA [2] |
| --- | --- | --- |
| TGGAGTACAACTACAACAGCC | 2.94 | – |
| TGGAGTCATGACACTAAGTCA | 3.53 | – |
| TGGAGTGAAGTATAAGAAGGG | – | 1.58 |
| TGGAGTTCGTGACCGCCGCCG | 0.898 | 1.24 |
| TGGCAATAAATTTATCTGATG | 1.26 | – |
| TGGCAGAACTCCGAGAGTCTA | – | 3.58 |
| TGGCAGCATCTTCACTTCTAA | – | 16.2 |
| TGGCAGCTTATACATAGCAAT | 7.58 | – |
| TGGCATCAACTTCATGGAAAG | 1.63 | – |
| TGGCATCTAACATATGATTCT | 1.37 | – |
| TGGCCCACCCTCGTGACCACC | 0.596 | 0.755 |
| TGGCCCATTTAACAGGCAAGT | – | 0.831 |
| TGGCCTAATGCACCCCCAAAC | 3.08 | – |
| TGGCCTTGTGATCAATGAAAC | – | 1.19 |
| TGGCTCAAAACTACCTACTTC | 4.56 | – |
| TGGCTGTAAATACTGCTTGGT | 1.54 | – |
| TGGCTTAGAAGTGGAAATAAA | 0.727 | – |
| TGGCTTTGTCTTCTTCTTTTG | 1.54 | – |
| TGGGAAAACAAACTTCATCAA | 3.1 | – |
| TGGGAAGACACCTATGGAATT | – | 1 |
| TGGGATTCTTTCCATTATGAT | – | 1.63 |
| TGGGCATCTGGACCCTCCTAC | 1.02 | – |
| TGGGCCCCTCCAGGCACAGTT | – | 0.899 |
| TGGGCCTTGCTACCTCAAGGG | – | 1.96 |
| TGGGCTACGGCCTGCAGTGCT | 0.538 | 0.685 |

| Sequence | fold depletion of shRNA [1] | fold depletion of shRNA [2] |
| --- | --- | --- |
| TGGGCTGCCATGTGAAGAGGG | – | 1.02 |
| TGGGCTGTACTTTGTATATTC | – | 1.86 |
| TGGGGACTCATTTCATTCCTA | – | 1.44 |
| TGGGGATGAACCAGACTGCGT | 1.91 | – |
| TGGGGATGTTTCAGCTCTTCC | – | 5.5 |
| TGGGGCACAAGCTGGAGTACA | 0.912 | 0.968 |
| TGGGGGCAGTGTTCAATCTTA | – | 1.45 |
| TGGGTACATTTTATCATTTAT | 0.786 | – |
| TGGGTGAAGAGAAAGGAAGTA | 1.07 | – |
| TGGGTGGACAGCAGTGCCAGC | – | 0.858 |
| TGGGTTGCATTTGGTCAAGAT | – | 0.597 |
| TGGTCAAGATTTTGAATGCTT | – | 7.53 |
| TGGTCAATTTTGAGGAATCTC | – | 1.43 |
| TGGTCCTGCTGGAGTTCGTGA | 1.09 | 1.3 |
| TGGTGAACCGCATCGAGCTGA | 1.12 | 1.38 |
| TGGTGAGCAAGGGCGAGGAGC | 1.21 | 1.19 |
| TGGTGATGATGGAGGGGAAGA | – | 1.22 |
| TGGTGCCCATCCTGGTCGAGC | 0.796 | 2.4 |
| TGGTGCTCATCTTAATGGCCT | 1.23 | – |
| TGGTGTCAATGAAGCCAAAAT | 2.01 | – |
| TGGTGTCATATTATACAATAT | 1.93 | – |
| TGGTTCTGGTTGCCTTGGTAG | – | 4.04 |
| TGGTTGCCTTGGTAGGATTGG | – | 5.68 |
| TGGTTGTGACCTGAGGATTTA | – | 0.541 |
| TGGTTTGGAGATACTAACTGC | 2.42 | – |

| Sequence | fold depletion of shRNA [1] | fold depletion of shRNA [2] |
| --- | --- | --- |
| TGGTTTTTTACTGGGTACATT | 1.12 | – |
| TGTAAAACCTGCTACAAATGG | 4.07 | – |
| TGTAAACCAAACTTTTTTTGT | 0.914 | – |
| TGTAAACTGTGAAGATAGTTA | 1.3 | – |
| TGTAAAGTATATGTATTTGAG | 0.865 | – |
| TGTAAATACTGCTTGGTTTTT | 0.802 | – |
| TGTAAATGTAAACTGTGAAGA | 1.12 | – |
| TGTAACTCTACTGTATGTGAA | 0.776 | – |
| TGTAATAAAAAGTATATGTTA | – | 0.527 |
| TGTAATCAGTGTATGTTAGTA | 0.853 | – |
| TGTACTCTTGCAGAGAAAATT | 0.81 | – |
| TGTACTTTGTATATTCCAAAG | – | 0.528 |
| TGTAGATATTGTGAAGTACAT | – | 0.875 |
| TGTAGATTGTGTGATGAAGGA | 2.47 | – |
| TGTAGATTTTTAATATCTCAT | 0.706 | – |
| TGTAGCTCCTCAACTCACCTA | – | 1.03 |
| TGTAGGGGTGTGTGTGTGTGT | – | 2.98 |
| TGTAGTATGAATGTAATCAGT | 2.51 | – |
| TGTATATTCCAAAGTATACTT | – | 0.498 |
| TGTATGACTAAAGAGAGAATG | – | 0.989 |
| TGTATGCAGAGGATGAAAGAT | 2.17 | – |
| TGTATGCATTTTACTGGCTCA | 2.61 | – |
